Reference: the supplement of paper PMC12632987
The full ranking holds about 4,500 sequences; the median of “median log2 fold change of GCK-ALFA target abundance (FLAG IP / Myc IP barcode read proportion)” is about 0.078, and the lowest 2% start at about -0.6. The list shows a part of the results.

B1: GBRAP_184_5290 (protein)
chain: KVKHVVIEAENGEEAIKKIEEEAEKAKKEGVKLDIDLFLKNVNIEEFEKIMKLLKKLKEEGVIKSATVELLDEVSEEELDKFVKIADEAGVKLVVALSDE
B2: GBRAP_11_2858 (protein)
chain: KKEELEKAAELAKKLVEALEELLKKGTDDEKLLKEIRKLAEELLELLKKVGDPAEIKLAEIALEEIEKALKDPENAEEYIQRALAAARVLEGNLLLRIDE
B3: GBRAP_83_6924 (protein)
chain: MEKITVAANDDHIEEAAEAAIDLHKNEGYEVDLEFIITPESVPTLKKAVEKMAKAGLNSDITVLLKGATEEEAEALKAELEAIAAKYGVDWNIEVHLIEP
B4: GBRAP_52_6304 (protein)
chain: MAERAEKLARELLALMLAGDREGAEKLLREIAETFSDEEILALAEALAKLAATLNEEELDAAAELLLMLEDELEEAGVDPGVIAEARGIIITALYKASQA
B5: GBRAP_9_7135 (protein)
chain: MKEIVKKIIEIFEEAREESLKVVPEEYKPLVDKVFDEAIKELKELQKDPNLTKEKLKEKVEELIEEMKEIFRKNLPADVARMVEAILDTAEEEIEEILEE
B6: GBRAP_160_4333 (protein)
chain: SEKVEKLKKFIDEEFEETKKLIEGLTVEQRKVLIEGTFGEIIMELSEEPEVSDELLDYVREVEDETIKTLDENPDLTEEEIKKLIDESREKIIEALEKSE
B7: GBRAP_35_5549 (protein)
chain: DSDREIAEMLVDTIEDIVEALPDVSEEDKIALAKAAIRLARDLVELKPKDEELIKRAIEALERIKEILEESDLPEEDKEELIEEIEELIEELKKLLEENK
B8: GBRAP_52_6242 (protein)
chain: MAARMAKLAAELYALVLAGDWEGAEKLANKIAEELNDEELKIFIDELAALAAKARKEDIDKVWRLAEIVAEALEKAGKPEILVDDLEAKIAAALYKVEKK
B9: GBRAP_35_5573 (protein)
chain: DFDEETVEMLLATIEDLTLAVADMDVETAVAAANAIVKAVRALGEELKDDPEGLERLAKALEKLRDAIEKNYPDDPAAQAAAAAVDAAIKELRELAKKAK
B10: GBRAP_48_5833 (protein)
chain: MPFDEEKLEKLVEEKVEEMKEIYEEAKKEGLSREEILRMIRAELGDLALELEEAGYTKAADYLLDPENRTAVAEKLLELFEEGKYEEAKKYLLDTLKAVE
B11: GBRAP_139_3748 (protein)
chain: MAEEEVRARARALTEALAEDPEAAIARLAELLSSLDEELREAAARAIGETLLAWPWDRAEAFLDALAARLREEHGDEDGAEIVEAEANRTLALIAVREEA
B12: GBRAP_52_6107 (protein)
chain: MREEARRLVEELLELVKEGRLEEARKLIEEKVKEWNDEELRIFGEALAELAREAAPEDLDAVWRLAEMIAEAMEKAGKEEVLADDLLARVAAALYERELR
B13: GBRAP_57_6458 (protein)
chain: MSRLEKVKKAAEELKKLLDADAPKEEIEKALRKLLDLASEEVLLDTLLILDPSTDPDLSLEEVKERLLETIMELLDTEGKEAAKKAIDLIEGQEEALESE
B14: GBRAP_160_4301 (protein)
chain: MENLEKLKKEIKEIAEEAIKLIEGQSPEERLAVVRVAMGNIILEAEENPEISDEAEEEIAEIADAAEATIRANPDLSEEEVKALIKEAEKKVLELIDKLE
B15: GBRAP_52_6201 (protein)
chain: MRERARRLAQEVFDAVKAGDLERARALLRELAREKDPELLELFAEELAELALTVAPEDLDAVFEAAELAEEVFLEEGVPEELADEFLARVAAALYEREQA
B16: GBRAP_117_2580 (protein)
chain: EEERERVRERLRRTVREAGEELRAAQALSPEERARVRERVRERIREAVREAVEVLSVEEVLDIVEETLLEFDAEVYFEIMLFVEEALEEIREEREREEAE
B17: GBRAP_74_6566 (protein)
chain: SEELIEEIKEVAENKSIKEFSEYILEHIDELDEESLLVALKKLLEKLEEEEDEITEEEAELVAEAAAALADKAFTSDASRETLEAAKKLIEKVIEIEKKL
B18: GBRAP_78_6631 (protein)
chain: EVEELIDEALEELGEAARLAKKLPEEDRNEVLDLIVEASSYLLESEEEGFDLELLEKALKYAEEALELVKKIDDPEAEKLKEELEKAIELLKKAIELVKK
B19: GBRAP_57_6445 (protein)
chain: SERLKKAEELAKKIKEALEEGAPLEEIEELFEKLLDLLSEETLLDIALILDPSTDPDASREEIKERLLELFRRAVEEEGKEAAKRMVDLAVGQLEMEEIE
B20: GBRAP_166_4938 (protein)
chain: SVEEALERLRELIEKAIEEMKTANAEERTELAIEVGEALREAREAGVPLEELLEAVREYLEGVKELGWNIKIFAGIIINEADFSEEEIDKVWEIVEEILK
B21: GBRAP_160_4670 (protein)
chain: EEEIEELLRELEEIMEEAVEMMEGESLEERVAVARVMTGEVILLLEESPLATDEVIETADELGDELVAYIRAHPDATPEEIRAKLEEVLERIREKLLEEV
B22: GBRAP_11_2833 (protein)
chain: KKEKLKELAEKAEEVAKELEALIASGAPTEEQLQALLKKAKELLEEVKEYGDESLEKIAEIALELIEKAIADPERQKEYLEEALAAARVLAGQYKLELEE
B23: GBRAP_125_2989 (protein)
chain: AEEQALADLAAVLAALGFSPEDVEEAVALARKHGLRGTLYAAMLALGHDELADLVAQLTEEQTRAVLAAVAAWLEAHPDATPEEVVAHLTAVARAELARA
B24: GBRAP_95_7064 (protein)
chain: EEDLEIAEDLIDTAEDLVEIGLYEQAARAAKAAVEELKEIGYTGELALRAAEVLVKVAEATGNEEAAELAKEVLEEIRKAGGDEKKIEELEKRLEKALKK
B25: GBRAP_184_5297 (protein)
chain: KVVDKVIEAETAEEAIKKIEEVAKEAKEKGVKVNLYLFLKNVSVEGFKKIAEKLKELKEKGLIEEATVVVEDEVSEEELDKLVEIADKAGVRLVVALSDE
B26: GBRAP_160_4649 (protein)
chain: MESLEEILEIIDEYSEIAKEAIDAGDLANAIAAMRMMTGDVVLEADEDPRFSEEDVDELDELGDEGVERLEAAADASPEELKALVDETTERLKKKVKEFY
B27: GBRAP_125_3103 (protein)
chain: EEEELLEALKALALALGFSEEDAEEAAELARRFSLKNTLIAILLAEGEEELAELVEKLTEEQAKEVLKKLAEWLKENPNASKEEVIKKLKELVEEALKKA
B28: GBRAP_160_4182 (protein)
chain: SEKVKEAEKEIEEIFEEAIKMMKGQSAEERANIARVAFGEILLLLEEKGLLTDELGEKIREIEDEVVTTILENPDLTDEELEKLLKEARDKVLKLLRESS
B29: GBRAP_122_2940 (protein)
chain: AELRARAEALLAAMVAALAAGDEAGLAALARELVELFGEVSPEEARATVEALLARLAGDPAATERALRALLAAFTELVPQNEAQEAAADVVAAAFDELSE

target: GABARAP, O95166; test: median log2 fold change of GCK-ALFA target abundance (FLAG IP / Myc IP barcode read proportion) (log2 ratio); each designed protein is fused to an ALFA-tag nanobody in HEK293 cells to bring the named protein to FLAG-tagged glucokinase (GCK); Myc marks an untargeted standard; higher = target protein stabilised (more abundant); settings: target protein: 3xFLAG-MCP-GCK-ALFA reporter; HEK293 landing pad (RPLP)
Sequence (O95166 whole entry, the tested form may be a part): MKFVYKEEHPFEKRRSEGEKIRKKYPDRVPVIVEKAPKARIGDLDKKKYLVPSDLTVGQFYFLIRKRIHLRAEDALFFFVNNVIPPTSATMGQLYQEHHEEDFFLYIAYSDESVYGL
How it was run: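 Binders fused to an ALFA nanobody were recombined as a library into HEK293 landing-pad cells, which were induced with 2 μg mL^−1 doxycycline and then transfected to express a FLAG-tagged target and a Myc-tagged standard. After 48 h, circular RNA barcodes recovered by anti-FLAG and anti-Myc immunoprecipitation of lysates were reverse transcribed, amplified and sequenced. Each binder's target abundance is the median log2 ratio of FLAG to Myc barcode read proportions, from barcodes present at ≥10^−7 in both replicates, binders carrying ≥3 barcodes per replicate, a 10^−6 pseudocount and pooled replicates.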

Row | Binder | median log2 fold change
1 | B1 | 0.0927
2 | B2 | 0.302
3 | B3 | -0.0677
4 | B4 | -0.2
5 | B5 | 0.231
6 | B6 | 0.135
7 | B7 | -0.761
8 | B8 | 0.248
9 | B9 | 0.164
10 | B10 | 0.184
11 | B11 | 0.211
12 | B12 | 0.0716
13 | B13 | 0.266
14 | B14 | 0.114
15 | B15 | -0.0612
16 | B16 | 0.192
17 | B17 | -0.133
18 | B18 | -0.0779
19 | B19 | 0.197
20 | B20 | 0.0436
21 | B21 | -0.298
22 | B22 | 0.24
23 | B23 | -0.0893
24 | B24 | 0.373
25 | B25 | -0.147
26 | B26 | -0.255
27 | B27 | -1.16
28 | B28 | 0.117
29 | B29 | 0.246
